In the supplement of paper PMC8285479:
“And” between values parts separate entries of the source, which are not always exact repeats. Equal entries are not always repeated. Structures can show the parent of a compound that is named as a salt. ± gives the standard deviation of the averaged measurements. Over roughly 1,900 compounds, “normalised cell viability (NPI; 0 = phenylarsine oxide control, 1 = DMSO control)” has its median near 1; the lowest 2% begin near 0.039. Some of the results follow.

Test system: NCI-H1944
Experiment: normalised cell viability (NPI; 0 = phenylarsine oxide control, 1 = DMSO control) (fraction of DMSO control); NCI-H1944 is a non-small cell lung cancer line; higher = more viable cells (less compound toxicity)
Details: 6 days
[1] = glucocorticoid arm: hydrocortisone 2.75 uM co-treatment, compound 1 µM
[2] = glucocorticoid arm: hydrocortisone 2.75 uM co-treatment, compound 5 µM
[3] = glucocorticoid arm: hydrocortisone 2.75 uM pre-treated 2 days and continued, compound 1 µM
[4] = glucocorticoid arm: hydrocortisone 2.75 uM pre-treated 2 days and continued, compound 5 µM
[5] = glucocorticoid arm: vehicle, compound 1 µM
[6] = glucocorticoid arm: vehicle, compound 5 µM
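Note: CTB read-out in 384-well plates, mean of triplicate wells, normalised per plate against 1 µM phenylarsine oxide and 0.1% DMSO, compounds added 24 h after seeding.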

Row | SMILES | normalised cell viability [1] | normalised cell viability [2] | normalised cell viability [3] | normalised cell viability [4] | normalised cell viability [5] | normalised cell viability [6]
1 | O=C(C1CCCCC1)N1CC(=O)N2CCc3ccccc3C2C1 (stereo unspecified) [Praziquantel] | 1.002 ± 0.0072 | 0.978 ± 0.016 | 1.01 ± 0.02 | 1 ± 0.016 | 0.987 ± 0.0053 | 1 ± 0.014
2 | C(=C\c1ccccc1)/CN1CCN(C(c2ccccc2)c2ccccc2)CC1 [Cinnarizine] | 1.01 ± 0.011 | 1.02 | 1.01 ± 0.015 | 1.015 ± 0.0071 | 0.998 ± 0.0035 | 1.017 ± 0.0058
3 | O=C(Nc1ccccc1-c1cn2c(CN3CCNCC3)csc2n1)c1cnc2ccccc2n1 | 0.983 ± 0.016 | 1.06 ± 0.029 | 0.964 ± 0.016 | 1.01 ± 0.025 | 0.997 ± 0.014 | 0.977 ± 0.034
4 | COc1ccc2c(c1OC)C(=O)O[C@@H]2[C@H]1c2c(cc3c(c2OC)OCO3)CCN1C [Noscapine hydrchloride] | 1.01 ± 0.01 | 1.01 ± 0.031 | 1.01 ± 0.016 | 1 ± 0.019 | 1.017 ± 0.0058 | 1.03 ± 0.011
5 | CCCCCCCCCCCCCCCC(=O)OC(CC(=O)O)C[N+](C)(C)C (racemic) [Palmitoyl-DL-Carnitine chloride] | 1.02 ± 0.011 | 0.975 ± 0.014 | 1.013 ± 0.0058 | 0.863 ± 0.28 | 1.007 ± 0.0058 | 1.02 ± 0.02
6 | CC[C@@H]1SC2(CCN(C)CC2)NC1=O | 1.02 | 1.01 ± 0.011 | 1.03 ± 0.029 | 1.02 ± 0.011 | 1.013 ± 0.0058 | 1.01 ± 0.012
7 | C/C=C1\C(=O)C[C@H]2[C@@H]3CCC4=CC(=O)CC[C@]4(C)[C@H]3CC[C@]12C [(Z)-Guggulsterone] | 0.9933 ± 0.0015 | 0.98 ± 0.031 | 0.994 ± 0.02 | 0.964 ± 0.029 | 0.9953 ± 0.0035 | 0.9887 ± 0.0091
8 | CN(C)CC(=O)Nc1ccc2[nH]c(=O)c3ccccc3c2c1 | – | 1.04 and 1.03 | – | – | – | –
9 | N#C/C(=C\c1ccc(-c2cc(Cl)ccc2Cl)o1)C(=O)Nc1cccc2ncccc12 | 0.971 ± 0.01 | 0.978 ± 0.035 | 0.984 ± 0.018 | 0.991 ± 0.014 | 0.9887 ± 0.0078 | 0.989 ± 0.012
10 | CC(C)(C)NCC(O)COc1cccc2c1CCC(=O)N2 (stereo unspecified) [Carteolol HCl] | 1.01 ± 0.021 | 0.986 ± 0.012 | 1.02 ± 0.017 | 0.977 ± 0.019 | 1.007 ± 0.0058 | 1.013 ± 0.0058
11 | CNC(=O)c1cc(Oc2ccc(NC(=O)Nc3ccc(Cl)c(C(F)(F)F)c3)c(F)c2)ccn1 [Regorafenib (BAY 73-4506)] | 0.883 ± 0.019 | 0.797 ± 0.038 | 0.88 ± 0.0036 | 0.848 ± 0.015 | 0.9853 ± 0.0067 | 0.994 ± 0.014
12 | CNC(=O)c1cc(Oc2ccc(NC(=O)Nc3ccc(Cl)c(C(F)(F)F)c3)c(F)c2)ccn1 [Regorafenib; BAY 73-4506(Regorafenib)] | 0.907 ± 0.013 | 0.635 ± 0.017 | 0.945 ± 0.011 | 0.73 ± 0.056 | 0.545 ± 0.057 | 0.817 ± 0.043
13 | CC(C)C[C@H](NC(=O)[C@H](O)[C@H](N)Cc1ccccc1)C(=O)O [Epibestatin hydrochloride] | 1.003 ± 0.0064 | 0.9953 ± 0.004 | 0.9977 ± 0.004 | 0.9947 ± 0.005 | 0.9957 ± 0.0067 | 1.007 ± 0.0058
14 | CN(C)C(=O)C(CCN1CCC(O)(c2ccc(Cl)cc2)CC1)(c1ccccc1)c1ccccc1 [Loperamide hydrochloride] | 0.9953 ± 0.0042 | 0.405 ± 0.032 | 1.017 ± 0.0058 | 0.87 ± 0.29 | 1 | 0.0171 ± 0.0045
15 | CN(C)C(=O)C(CCN1CCC(O)(c2ccc(Cl)cc2)CC1)(c1ccccc1)c1ccccc1 [Loperamide HCl] | 1.02 ± 0.026 | 0.893 ± 0.035 | 1.047 ± 0.0058 | 0.984 ± 0.012 | 1.017 ± 0.0058 | 0.919 ± 0.0099
16 | CC[N+](CC)(CC)CCOc1ccc(/C=C/c2ccccc2)cc1 | 0.933 ± 0.016 | 0.324 ± 0.0096 | 0.9873 ± 0.0055 | 0.702 ± 0.038 | 1.013 ± 0.0058 | 0.273 ± 0.036

Row | SMILES | normalised cell viability [1] | normalised cell viability [2] | normalised cell viability [3] | normalised cell viability [4] | normalised cell viability [5] | normalised cell viability [6]
17 | Nc1nc2[nH]cnc2c(=S)[nH]1 [Thioguanine] | 0.931 ± 0.0046 | 0.423 ± 0.024 | 0.9813 ± 0.0011 | 0.754 ± 0.04 | 0.9133 ± 0.0051 | 0.119 ± 0.011
18 | C=CCc1cccc(/C=N/NC(=O)CN2CCN(Cc3ccccc3)CC2)c1O | 0.989 ± 0.011 | 0.999 ± 0.022 | 1 ± 0.038 | 1 ± 0.022 | 0.9867 ± 0.0068 | 0.991 ± 0.0044
19 | Cc1cccc(C)c1NC(=O)C(C)N (stereo unspecified) [Tocainide hydrochloride] | 0.987 ± 0.015 | 0.944 ± 0.017 | 0.99 ± 0.01 | 0.954 ± 0.026 | 0.972 ± 0.0027 | 0.9643 ± 0.0071
20 | NC(N)=NC(N)=Nc1cccc(Cl)c1 [1-(m-Chlorophenyl)-biguanide hydrochloride] | 0.9883 ± 0.0095 | 0.968 ± 0.02 | 0.996 ± 0.013 | 0.954 ± 0.011 | 0.97 ± 0.0046 | 0.9693 ± 0.006
21 | Cc1cc(O)c2c(c1)C(=O)c1cccc(O)c1C2=O [Chrysophanic Acid] | 1.005 ± 0.0087 | 1.03 ± 0.01 | 1.027 ± 0.0058 | 1.02 ± 0.01 | 0.997 ± 0.011 | 1.013 ± 0.0058
22 | COc1cc2c(N3CCN(C(=O)Nc4ccc(OC(C)C)cc4)CC3)ncnc2cc1OCCCN1CCCCC1 [Tandutinib (MLN518)] | 1.004 ± 0.0098 | 1.06 ± 0.01 | 1.01 ± 0.011 | 1.04 ± 0.017 | 0.996 ± 0.0069 | 0.9893 ± 0.0095
23 | Cc1cccc(C)c1OCC(C)N (stereo unspecified) [Mexiletine hydrochloride] | 1.01 ± 0.01 | 1.01 ± 0.032 | 1.013 ± 0.0058 | 1.05 ± 0.073 | 0.998 ± 0.002 | 1 ± 0.013
24 | COc1ccccc1N1CCN(CCCCN2C(=O)c3ccccc3C2=O)CC1 [NAN-190 hydrobromide] | 1 ± 0.011 | 0.9863 ± 0.0092 | 0.999 ± 0.011 | 1 ± 0.019 | 1.007 ± 0.0058 | 1.02 ± 0.017
25 | CN1[C@@H]2CC[C@H]1C[C@@H](OC(=O)c1c[nH]c3ccccc13)C2 [Tropisetron] | 1.02 ± 0.017 | 0.982 ± 0.02 | 1.03 ± 0.01 | 0.985 ± 0.033 | 1.003 ± 0.0061 | 0.9937 ± 0.0065
26 | NC[C@@H]1O[C@H](O[C@H]2[C@@H](O)[C@H](O[C@@H]3[C@@H](O)[C@H](N)C[C@H](N)[C@H]3O[C@H]3O[C@H](CO)[C@@H](O)[C@H](O)[C@H]3N)O[C@@H]2CO)[C@H](N)[C@@H](O)[C@@H]1O [Paromomycin sulfate] | 0.988 ± 0.0076 | 1.01 ± 0.014 | 1.01 ± 0.023 | 0.9793 ± 0.0067 | 0.9853 ± 0.0065 | 0.9797 ± 0.0059
27 | Nc1nc(CC(=O)Nc2ccc(CCNC[C@H](O)c3ccccc3)cc2)cs1 [Mirabegron] | 1.03 ± 0.01 | 1 ± 0.035 | 1.04 ± 0.015 | 1.01 ± 0.015 | 1.017 ± 0.0058 | 1.002 ± 0.0068
28 | CCOc1cc2ncc(C#N)c(Nc3ccc(F)c(Cl)c3)c2cc1NC(=O)/C=C/CN(C)C [Pelitinib (EKB-569)] | 0.588 ± 0.026 | 0.479 ± 0.028 | 0.619 ± 0.016 | 0.525 ± 0.015 | 0.535 ± 0.056 | 0.366 ± 0.041
29 | CCCc1c(-c2ccc(O)cc2)nn(-c2ccc(O)cc2)c1-c1ccc(O)cc1 [1,3,5-tris(4-hydroxyphenyl)-4-propyl-1H-pyrazole] | 1.02 | 1.01 ± 0.012 | 1 ± 0.014 | 1.05 ± 0.015 | 0.9913 ± 0.0055 | 1.01
30 | NC(=O)c1ccc2[nH]ccc2c1 | 0.9987 ± 0.0015 | 0.987 ± 0.01 | 0.992 ± 0.019 | 0.986 ± 0.011 | 0.9897 ± 0.0057 | 0.9927 ± 0.0042
31 | COc1ccc(/C=C/C(=O)Nc2ccccc2C(=O)O)cc1OC [Tranilast] | 1.006 ± 0.0075 | 0.998 ± 0.021 | 1.01 ± 0.03 | 1.01 ± 0.011 | 1.017 ± 0.0058 | 1.01 ± 0.011
